# Test results as given in the supplement of paper PMC7125110.
# ± gives the standard error. This sample is rich in variants without activity.
# B1: glmS ribozyme (parent)
# chain: AUAAAAGCGCCAGAACUACAGAAAUGUAGUUGACGAGGAGGAGGUUUAUCGAAUUUUCGGCGGAUGCCUCCAAA
# Variants of: B1
# Assay: self-cleavage kobs at 10000 uM GlcN6P; higher = faster cleavage; RNA array
# Conditions: with glucosamine-6-phosphate
# Method in brief: (§1)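 A hybridised Cy3 probe tracked barcoded ribozyme variants, transcribed in situ by E. coli RNA polymerase on sequenced MiSeq chips, at 37 °C. The variants received 40 μM to 10 mM glucosamine-6-phosphate in HEPES/KCl/Mg(OAc)2 buffer. kobs came from decay fits and kcat and KM from weighted Michaelis–Menten fits.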
row,Variant,self-cleavage kobs at 10000 uM GlcN6P
1,G38U G40A C68A C71U,< 1e-05 s⁻¹
2,G7U A15U C50G A53U U55G G62U,7.67e-05 ± 2.5e-05 s⁻¹
3,C10A G29C A52U,< 1e-05 s⁻¹
4,C34G G37A G62C A64U,< 1e-05 s⁻¹
5,C8G G41A G63U C67G,< 1e-05 s⁻¹
6,C10U G38U U46A C58U,< 1e-05 s⁻¹
7,G32U G38U U69C,< 1e-05 s⁻¹
8,A6U C50G A52U C61G C68U,4.51e-05 ± 1.6e-05 s⁻¹
9,A15U A33C G37A U65C,< 1e-05 s⁻¹
10,G37A G63C C71G,< 1e-05 s⁻¹
11,G29U G35C G43C G59A,< 1e-05 s⁻¹
12,G9U U47G C50A G60U,< 1e-05 s⁻¹
13,A14U G32C G38C A52G,< 1e-05 s⁻¹
14,A53G U57G C67G C68A,< 1e-05 s⁻¹
15,C8U C10A A48G U65A,< 1e-05 s⁻¹
16,G41U A42U U55C C70G,0.000238 ± 4.7e-05 s⁻¹

row,Variant,self-cleavage kobs at 10000 uM GlcN6P
1,C50U U56C C67G,< 1e-05 s⁻¹
2,G29A A64G C67G,5.14e-05 ± 2e-05 s⁻¹
3,C10U A22C G40C U56C C58A,< 1e-05 s⁻¹
4,A36C G60U,< 1e-05 s⁻¹
5,G13C C61G,< 1e-05 s⁻¹
6,A15G C16U G29C,0.00377 ± 0.00075 s⁻¹
7,U45G G59A,7.24e-05 ± 1.4e-05 s⁻¹
8,A12G G29A U46C,6.56e-05 ± 1.2e-05 s⁻¹
9,C11U A15G C58G C68U,0.000112 ± 2.5e-05 s⁻¹
10,G43C U45C C71A,< 1e-05 s⁻¹
11,C16A G35C A64C,< 1e-05 s⁻¹
12,G51U C61G U65G,< 1e-05 s⁻¹
13,A12G G13U U56G C61U C68G C70A,4.15e-05 ± 1.7e-05 s⁻¹
14,A6C G63A U65G,< 1e-05 s⁻¹
15,G40A U45C U65G C67G,0.00034 ± 0.00012 s⁻¹

# Variants of: B1
# Assay: self-cleavage kobs at 2500 uM GlcN6P; higher = faster cleavage; RNA array
# Conditions: with glucosamine-6-phosphate
# Method in brief: as §1
row,Variant,self-cleavage kobs at 2500 uM GlcN6P
1,A36U G41U C71A,< 1e-05 s⁻¹
2,C50G A52C U69C C70A,0.000257 ± 8e-05 s⁻¹
3,A39C G41A C70G,< 1e-05 s⁻¹
4,C61A A64U C68U,< 1e-05 s⁻¹
5,U45C C58U G59C,< 1e-05 s⁻¹
6,C34U G41A C71U,< 1e-05 s⁻¹
7,G35U A39C G60U C67U C68U,< 1e-05 s⁻¹
8,A36C G60U,< 1e-05 s⁻¹
9,G40A U45C G63U,< 1e-05 s⁻¹
10,G41U U56A C61U G66C,< 1e-05 s⁻¹
11,G41A C61A G62A,< 1e-05 s⁻¹
12,C34U C50A C58G G62C,< 1e-05 s⁻¹
13,G38U G41U U56A G59C,< 1e-05 s⁻¹
14,C34U A53G U54C G59A,< 1e-05 s⁻¹
15,A42U U56A U69G,0.00299 ± 0.00059 s⁻¹
16,A39C A42G G59U G63C,< 1e-05 s⁻¹
17,G43A A53G G60U C70U,< 1e-05 s⁻¹
18,C34U A64G U69C,< 1e-05 s⁻¹
19,G35C G40U U47A G59U C61G,< 1e-05 s⁻¹
20,A36C G41A A53U U65A C67G,< 1e-05 s⁻¹
21,A42G U49C C68G,< 1e-05 s⁻¹
22,G59U A64C G66C,< 1e-05 s⁻¹
